Results published in the supplement of paper PMC4723716.
± gives the uncertainty stated by the source. Whole data set: some 9,900 compounds, median “viability index relative to DMSO control” near 1, cut for the lowest 2% near 0.85. Some of the results follow.

System: Plasmodium falciparum NF54 stage V gametocytes
Experiment: viability index relative to DMSO control (fraction); higher = less gametocyte killing
Conditions: 2.5 µM, incubation time: 72 h
Summary of the method: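 Stage V gametocytes of P. falciparum NF54 were held in serum-free screening medium at 0.75% gametocytemia and 1.25% hematocrit, 10 µl per well of a 1,536-well plate, and exposed to compound at 2.5 µM for 72 hr at 37°C under low oxygen. A 3 µl mix of 2.5 µM MitoTracker Red CMXRos with 0.13% saponin was then added for one to two hours, after which one field per well was imaged and red particles of 20–70 µm2 were counted. The viability index equals this count divided by the plate mean from wells given solvent alone.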

[1] = library set: Broad Institute DOS

Compound	viability index [1]	viability index (library set: Broad Institute Blood Stage)
O=C(C[C@H]1C=C[C@@H](NC(=O)c2cnccn2)[C@H](CO)O1)NCc1ccccc1F	1.03 ± 0.12	
NCC[C@@H]1CC[C@@H](NC(=O)Cc2ccncc2)[C@H](CO)O1	1.1 ± 0.069	
CC(C)NC(=O)N[C@H]1CC[C@H](CC(=O)NCCCN(C)C)O[C@H]1CO	1.006 ± 0.0083	
C[C@@H](NC(=O)C[C@H]1CC[C@H]2[C@@H](COC[C@@H](O)CN2Cc2ccc(C(F)(F)F)cc2)O1)c1ccccc1	1.04 ± 0.11	
CC(C)CN(C[C@H]1N[C@H](CO)[C@@H]1c1ccccc1)C(=O)C1CCCCC1	1.03 ± 0.051	
CO[C@H](CN(C)C(=O)c1ccccc1F)[C@H](C)CN([C@H](C)CO)S(=O)(=O)c1ccc(F)cc1	1.13 ± 0.035	
O=C(C[C@@H]1CC[C@H]2[C@@H](COC[C@@H](O)CN2Cc2cc(F)ccc2F)O1)NCc1ccc(Oc2ccccc2)cc1	0.949 ± 0.0061	
C/C=C/c1ccc([C@H]2[C@@H](CO)N(C(C)=O)[C@@H]2CN(CC)C(=O)CN(C)C)cc1	1 ± 0.012	
O=C(C1CCC1)N1CC(=O)N2[C@@H](CO)[C@@H](c3ccc(Br)cc3)[C@@H]2C1	1.017 ± 0.0031	
CN(C[C@@H]1N[C@H](CO)[C@@H]1c1ccc(C#CCC2CCCC2)cc1)S(C)(=O)=O	1.03 ± 0.03	
C[C@H](CO)N1C[C@H](C)[C@H](CN(C)S(C)(=O)=O)Oc2ccc(NC(=O)NC3CCCCC3)cc2C1=O	0.979 ± 0.024	
OC[C@@H]1[C@@H](c2ccc(-c3cccc(F)c3)cc2)[C@H]2CN(Cc3cncnc3)CCCCN12	1.01 ± 0.03	
COc1ccccc1-c1cccc(-c2nc(C(=O)N3CCN(C)CC3)cc3c2[C@H](CCO)N([S@@](=O)C(C)(C)C)C3)c1	1.03 ± 0.032	
OC[C@H]1[C@H](c2ccc(-c3cccnc3)cc2)[C@H]2CN(Cc3ccccn3)CCCCN21	0.854 ± 0.029	
O=C(C1CC1)N1C[C@@H]2[C@H](c3ccccc31)[C@@H](CO)N2C(=O)c1ccccc1	1 ± 0.02	
C[C@@H]1CCCCO[C@H](CN(C)S(=O)(=O)c2ccc(Cl)cc2)[C@H](C)CN([C@@H](C)CO)C(=O)c2cc(NC(=O)Nc3ccc(C(F)(F)F)cc3)ccc2O1	1.01 ± 0.1	
O=C(C[C@@H]1CC[C@H](NC(=O)C2CCOCC2)[C@H](CO)O1)NCC1CCCCC1	1.11 ± 0.079	
CC(=O)N1[C@H](CO)[C@@H](c2ccc(-c3ccc(C#N)cc3)cc2)C12CN(C(=O)C1CC1)C2	1.14 ± 0.045	
COc1cccc(-c2ccc([C@H]3[C@H](CO)N4C(=O)CN(C(=O)c5cccnc5)C[C@@H]34)cc2)c1	0.984 ± 0.052	
Cc1ccccc1S(=O)(=O)N1C[C@@H](O)COC[C@@H]2O[C@H](CC(=O)N3CCCCC3)CC[C@H]21	1 ± 0.013	
C/C=C/c1ccc2n(c1=O)C[C@@H]1[C@@H](CO)[C@H](C(=O)NCc3ccccc3Cl)N(S(C)(=O)=O)[C@H]21.C/C=C\c1ccc2n(c1=O)C[C@@H]1[C@@H](CO)[C@H](C(=O)NCc3ccccc3Cl)N(S(C)(=O)=O)[C@H]21	0.977 ± 0.041	
O=C(C[C@@H]1C[C@H]2c3cc(NC(=O)c4ccc5c(c4)OCO5)ccc3O[C@H]2[C@@H](CO)O1)NCCN1CCCCC1	1.1 ± 0.05	
CN1C(=O)c2cc(NC(=O)Cc3cccs3)ccc2OC[C@H]2O[C@H](CC(=O)NCCc3ccncc3)CC[C@@H]21	1.1 ± 0.097	

Compound	viability index [1]	viability index (library set: Broad Institute Blood Stage)
O=C(Nc1ccc(F)cc1)N1C[C@@H]2[C@H](c3ccccc31)[C@H](CO)N2C(=O)c1ccncc1	0.998 ± 0.073	
Cc1ccccc1S(=O)(=O)N1CC(=O)N2[C@H](CO)[C@H](c3ccc(C#CCC4CCCC4)cc3)[C@H]2C1		0.918 ± 0.054
CN1CCN(C(=O)c2cc3c(c(-c4cccc(Br)c4)n2)[C@@H](CCO)N([S@](=O)C(C)(C)C)C3)CC1	1.08 ± 0.019	
COc1ccc2c3c([C@H](CO)N(CC4CC4)C[C@]33CCN(CC3)C(=O)c3cccc(F)c3)n(C)c2c1	0.994 ± 0.068	
CCCNC(=O)N1[C@H](C#N)[C@@H](c2ccccc2-c2ccccc2F)[C@@H]1CO	1.06 ± 0.018	
O=C(c1cccnc1)N1CC(=O)N2[C@H](C1)[C@H](c1ccc(-c3ccccc3F)cc1)[C@@H]2CO	1.05 ± 0.047	
CN(C)CC(=O)N1CC(=O)N2[C@H](C1)[C@@H](c1ccc(C#Cc3cccnc3)cc1)[C@@H]2CO	1.04 ± 0.062	
CCS(=O)(=O)Nc1ccc2c(c1)C(=O)N(C)[C@@H]1CC[C@@H](CC(=O)NCc3ccc(OC)cc3)O[C@@H]1CO2	1.015 ± 0.01	
C[C@H]1C/C=C/C[C@@H](c2ccc(F)cc2)NC(=O)[C@H](Cc2ccccc2)N(C)C(=O)c2ccccc2O1.C[C@H]1C/C=C\C[C@@H](c2ccc(F)cc2)NC(=O)[C@H](Cc2ccccc2)N(C)C(=O)c2ccccc2O1	1 ± 0.017	
O=C(C[C@@H]1CC[C@@H]2[C@H](COC[C@H](O)CN2S(=O)(=O)c2cccc(Cl)c2)O1)N1CCOCC1	1.04 ± 0.092	
O=C(Nc1cccc(Cl)c1)N[C@@H]1CC[C@H](CCn2cc(Cc3ccccc3)nn2)O[C@@H]1CO	1.162 ± 0.0056	
CCCC(=O)Nc1ccc2c(c1)C(=O)N(C)C[C@H](OC)[C@@H](C)CN(C(=O)c1ccccn1)[C@H](C)CO2	0.994 ± 0.035	
C[C@@H]1CN([C@H](C)CO)C(=O)Cc2cc(N(C)C)ccc2O[C@H]1CN(C)C(=O)NC1CCCCC1	0.993 ± 0.12	
Cc1noc(C)c1NC(=O)N1C[C@@H](O)COC[C@@H]2O[C@@H](CC(=O)N[C@@H]3CCN(Cc4ccccc4)C3)CC[C@H]21	1.04 ± 0.021	
COc1ccc2c3c([C@H](CO)N(C[C@]33CCN(CC3)C(=O)Nc3ccccc3F)C(C)=O)n(C)c2c1	0.994 ± 0.067	
C[C@H]1CCCCO[C@H](CN(C)S(C)(=O)=O)[C@@H](C)CN([C@@H](C)CO)C(=O)c2cc(NC(=O)NC3CCCCC3)ccc2O1	1.14 ± 0.055	
Cc1noc(C)c1NC(=O)N(C)C[C@H]1Oc2cc(C#CCN(C)C)ccc2S(=O)(=O)N([C@H](C)CO)C[C@H]1C	1.02 ± 0.083	
CO[C@@H]1CN(C)C(=O)c2cc(NC(=O)c3ccc(F)cc3)ccc2OC[C@H](C)N(C(=O)CC2CC2)C[C@H]1C	1.112 ± 0.0054	
CN1C[C@@H](O)COC[C@@H]2O[C@H](CC(=O)NC3CCCC3)CC[C@H]21	1.073 ± 0.0037	
CC(C)NC(=O)N1CC(=O)N2[C@@H](CO)[C@H](c3ccc(/C=C/c4ccccc4)cc3)[C@@H]2C1	0.951 ± 0.03	
CC(C)C#Cc1ccc([C@H]2[C@@H](CO)N3C(=O)CN(C(=O)Cc4ccccc4)C[C@H]23)cc1	0.848 ± 0.025	
COc1cccc(C(=O)Nc2ccc3c(c2)C(=O)N(C)C[C@@H](OC)[C@H](C)CN(C(=O)C2CC2)[C@H](C)CO3)c1	1.061 ± 0.0025	
C/C=C/c1ccc([C@H]2[C@@H](CO)N(C(=O)C3CCCC3)C23CN(S(C)(=O)=O)C3)cc1	1.058 ± 0.0091	

Compound	viability index [1]	viability index (library set: Broad Institute Blood Stage)
C[C@@H]1CCCCO[C@@H](CN(C)Cc2ccncc2)[C@H](C)CN([C@H](C)CO)C(=O)c2cc(NC(=O)Cc3ccccc3)ccc2O1	1.06 ± 0.043	
CNC[C@@H]1Oc2ccc(NC(=O)CCC(F)(F)F)cc2C(=O)N([C@@H](C)CO)C[C@H]1C	1.02 ± 0.044	
CCC(=O)Nc1ccc2c(c1)OC[C@H](C)N(Cc1ccccc1)C[C@@H](C)[C@H](OC)CN(C)C2=O	1.01 ± 0.029	
CNC[C@H]1OCc2cn(nn2)CCCC(=O)N([C@H](C)CO)C[C@H]1C	1.01 ± 0.029	
O=C(Nc1ccccc1)N1CC(=O)N2[C@H](CO)[C@H](c3ccc(C#CC4CCCCC4)cc3)[C@@H]2C1	0.96 ± 0.031	
O=C(Nc1ccc(C(F)(F)F)cc1)Nc1ccc2c(c1)[C@H]1C[C@@H](CC(=O)N3CCc4ccccc4C3)O[C@H](CO)[C@H]1O2	0.981 ± 0.027	
CCCNC(=O)N1CC2(C1)[C@H](c1ccccc1)[C@H](CO)N2Cc1ccc(Cl)cc1	1.099 ± 0.007	
COCC(=O)Nc1ccc2c(c1)C(=O)N(C)[C@H]1CC[C@@H](CC(=O)NC3Cc4ccccc4C3)O[C@H]1CO2	1.14 ± 0.066	
COc1cccc(-c2ccc3n(c2=O)C[C@@H]2[C@@H](CO)[C@H](C(=O)N(C)C)[C@H]3N2C(=O)c2ccccn2)c1	1.04 ± 0.017	
O=C(C[C@@H]1CC[C@H]2[C@@H](COC[C@H](O)CN2C(=O)c2cnccn2)O1)N1CCN(c2ccccc2)CC1	1.1 ± 0.064	
O=C(Nc1ccccc1F)N1CC(=O)N2[C@H](CO)[C@@H](c3ccc(-c4cccnc4)cc3)[C@@H]2C1	1.08 ± 0.04	
Cc1ccc(S(=O)(=O)N2[C@@H]3CNC[C@H]2[C@@H]3c2ccc(/C=C/c3ccccc3)cc2)cc1	0.965 ± 0.038	
C[C@@H]1CCCCO[C@H](CN(C)C(=O)Cc2ccccc2)[C@@H](C)CN([C@@H](C)CO)C(=O)c2cc(NS(C)(=O)=O)ccc2O1	1.08 ± 0.026	
COc1ccc(S(=O)(=O)Nc2ccc3c(c2)C(=O)N([C@@H](C)CO)C[C@@H](C)[C@@H](CN(C)Cc2ccc(C(F)(F)F)cc2)OCCCC[C@@H](C)O3)cc1	0.987 ± 0.0063	
O=C(NC[C@H]1N[C@@H](CO)[C@H]1c1ccc(-c2ccccc2F)cc1)c1ccccn1	1.02 ± 0.058	
O=C(NC[C@H]1N[C@H](CO)[C@H]1c1ccccc1)c1ccccc1F	1.08 ± 0.025	
C/C=C/c1ccc2c(c1)O[C@H](CN(C)C(=O)Nc1ccc(OC)cc1)[C@H](C)CN([C@H](C)CO)S2(=O)=O	1.056 ± 0.0059	
COc1ccc2c3c([C@H](CO)N(C[C@]33CCN(Cc4ccncc4)CC3)C(=O)CN3CCOCC3)n(C)c2c1	0.909 ± 0.014	
O=C(C[C@@H]1CC[C@@H]2[C@H](COC[C@@H](O)CN2C(=O)Nc2cc(Cl)cc(Cl)c2)O1)N1CCOCC1	1.09 ± 0.095	
COC(=O)C[C@@H]1C[C@@H]2c3cc(NC(=O)c4ccc5c(c4)OCO5)ccc3O[C@@H]2[C@@H](CO)O1	1.06 ± 0.029	
C/C=C/c1ccc([C@H]2[C@H]3CNC[C@@H]2N3Cc2ccc(OC)cc2)cc1	1.05 ± 0.019	
CCCNC(=O)C[C@H]1CC[C@H]2[C@H](COc3ccc(NC(=O)CC)cc3C(=O)N2C)O1	1.11 ± 0.06	
O=C1NCCCOCc2cn(nn2)CC[C@@H]1Cc1ccc(-c2ccccc2)cc1	1.01 ± 0.036	
